From patent US20140271457A1 (AbbVie / Abbott, published 2014)

Molecular target: Recombinant Human IL-13 (human, UniProt P35225 partial chain, limits assumed)
Test: cell-based or functional assay

UniProt P35225, sequence (P35225 35-146 limits assumed): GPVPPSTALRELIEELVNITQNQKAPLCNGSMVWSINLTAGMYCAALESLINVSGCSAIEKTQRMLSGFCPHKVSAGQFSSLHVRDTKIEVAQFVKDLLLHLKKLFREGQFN

B1: DVD3147 (bispecific antibody, human IgG1, kappa)
heavy: EVQLVESGGGLVQPGGSLRLSCAASGFTFSNYGVTWVRQAPGKGLEWVSMIWADGSTHYASSVKGRFTISRDNSKNTLYLQMNSLRAEDTAVYYCAREWQHGPVAYWGQGTLVTVSSASTKGPSVFPLAPEVQLVQSGAEVKKPGASVKVSCKASGYTFTSYWMHWVRQAPGQGLEWIGNINPKGGSNIYNEKFQGRVTMTRDTSISTAYMELSRLRSDDTAVYYCARLDYFGDSFDLWGQGTTVTVSS[here human IgG1 constant region without letters]
light: DIQMTQSPSSLSASVGDRVTITCRASQLVSSAVAWYQQKPGKAPKLLIYWASARHTGVPSRFSGSGSGTDFTLTISSLQPEDFATYYCQQHYKTPFTFGQGTKLEIKRTVAAPDIQMTQSPSSLSASVGDRVTITCRASQGIRNYLNWYQQKPGKAPKLLIYYASNLEVGVPSRFSGSGSGTDYTLTISSLQPEDFATYYCQQDNRFPYTFGGGTKVEIKRTVAAPSVFIFPPSDEQLKSGTASVVCLLNNFYPREAKVQWKVDNALQSGNSQESVTEQDSKDSTYSLSSTLTLSKADYEKHKVYACEVTHQGLSSPVTKSFNRGEC
- IL-13 Neutralization Assay IC50: 745 pM

B2: DVD3157 (bispecific antibody, human IgG1, kappa)
heavy: B1 heavy with T35E, M50G, S61D, S62T, G65S
light: B1 light with R24K, A53T, R54L, K93R
- IL-13 Neutralization Assay IC50: 35 pM

B3: DVD3164 (bispecific antibody, human IgG1, kappa)
heavy: EVQLVQSGAEVKKPGASVKVSCKASGYTFANYGIIWVRQAPGQGLEWMGWINTYTGKPTYAQKFQGRVTMTTDTSTSTAYMELSSLRSEDTAVYYCARKLFTTMDVTDNAMDYWGQGTTVTVSSASTKGPEVQLVQSGAEVKKPGASVKVSCKASGYTFTSYWMHWVRQAPGQGLEWIGNINPKGGSNIYNEKFQGRVTMTRDTSISTAYMELSRLRSDDTAVYYCARLDYFGDSFDLWGQGTTVTVSS[here human IgG1 constant region without letters]
light: DIQMTQSPSSLSASVGDRVTITCRASQDISQYLNWYQQKPGKAPKLLIYYTSRLQSGVPSRFSGSGSGTDFTLTISSLQPEDFATYFCQQGNTWPPTFGQGTKLEIKRTVAAPDIQMTQSPSSLSASVGDRVTITCRASQGIRNYLNWYQQKPGKAPKLLIYYASNLEVGVPSRFSGSGSGTDYTLTISSLQPEDFATYYCQQDNRFPYTFGGGTKVEIKRTVAAPSVFIFPPSDEQLKSGTASVVCLLNNFYPREAKVQWKVDNALQSGNSQESVTEQDSKDSTYSLSSTLTLSKADYEKHKVYACEVTHQGLSSPVTKSFNRGEC
notes: DVD-Ig: outer AB441 (TNF), inner AB399 (IL-13); linkers HG-short/LK-short; also called DVD3164H; DVD3164L
- IL-13 Neutralization Assay IC50: 335 pM

B6: DVD3166 (bispecific antibody, human IgG1, kappa)
heavy: B3 heavy
light: DIQMTQSPSSLSASVGDRVTITCRASQDISQYLNWYQQKPGKAPKLLIYYTSRLQSGVPSRFSGSGSGTDFTLTISSLQPEDFATYFCQQGNTWPPTFGQGTKLEIKRTVAAPSVFIFPPDIQMTQSPSSLSASVGDRVTITCRASQGIRNYLNWYQQKPGKAPKLLIYYASNLEVGVPSRFSGSGSGTDYTLTISSLQPEDFATYYCQQDNRFPYTFGGGTKVEIKRTVAAPSVFIFPPSDEQLKSGTASVVCLLNNFYPREAKVQWKVDNALQSGNSQESVTEQDSKDSTYSLSSTLTLSKADYEKHKVYACEVTHQGLSSPVTKSFNRGEC
notes: DVD-Ig: outer AB441 (TNF), inner AB399 (IL-13); linkers HG-short/LK-long; also called DVD3166H; DVD3166L
- IL-13 Neutralization Assay IC50: 72 pM

B9: DVD3163 (bispecific antibody, human IgG1, kappa)
heavy: EVQLVQSGAEVKKPGASVKVSCKASGYTFANYGIIWVRQAPGQGLEWMGWINTYTGKPTYAQKFQGRVTMTTDTSTSTAYMELSSLRSEDTAVYYCARKLFTTMDVTDNAMDYWGQGTTVTVSSGGGGSGGGGSEVQLVQSGAEVKKPGASVKVSCKASGYTFTSYWMHWVRQAPGQGLEWIGNINPKGGSNIYNEKFQGRVTMTRDTSISTAYMELSRLRSDDTAVYYCARLDYFGDSFDLWGQGTTVTVSS[here human IgG1 constant region without letters]
light: DIQMTQSPSSLSASVGDRVTITCRASQDISQYLNWYQQKPGKAPKLLIYYTSRLQSGVPSRFSGSGSGTDFTLTISSLQPEDFATYFCQQGNTWPPTFGQGTKLEIKRGGSGGGGSGDIQMTQSPSSLSASVGDRVTITCRASQGIRNYLNWYQQKPGKAPKLLIYYASNLEVGVPSRFSGSGSGTDYTLTISSLQPEDFATYYCQQDNRFPYTFGGGTKVEIKRTVAAPSVFIFPPSDEQLKSGTASVVCLLNNFYPREAKVQWKVDNALQSGNSQESVTEQDSKDSTYSLSSTLTLSKADYEKHKVYACEVTHQGLSSPVTKSFNRGEC
notes: DVD-Ig: outer AB441 (TNF), inner AB399 (IL-13); linkers GS-H10/GS-L10; also called DVD3163H; DVD3163L
- IL-13 Neutralization Assay IC50: 76 pM

Further lines, results first:

- IL-13 Neutralization Assay IC50: 46 pM
B4: DVD3167 (bispecific antibody, human IgG1, kappa)
heavy: EVQLVQSGAEVKKPGASVKVSCKASGYTFANYGIIWVRQAPGQGLEWMGWINTYTGKPTYAQKFQGRVTMTTDTSTSTAYMELSSLRSEDTAVYYCARKLFTTMDVTDNAMDYWGQGTTVTVSSASTKGPSVFPLAPEVQLVQSGAEVKKPGASVKVSCKASGYTFTSYWMHWVRQAPGQGLEWIGNINPKGGSNIYNEKFQGRVTMTRDTSISTAYMELSRLRSDDTAVYYCARLDYFGDSFDLWGQGTTVTVSS[here human IgG1 constant region without letters]
light: B3 light

- IL-13 Neutralization Assay IC50: 78 pM
B5: DVD3177 (bispecific antibody, human IgG1, kappa)
heavy: B4 heavy with A30N, T102N, M104V, D105A
light: B3 light with S30E, Q31N, W94Q

- IL-13 Neutralization Assay IC50: 527 pM
B7: DVD3174 (bispecific antibody, human IgG1, kappa)
heavy: B3 heavy with A30N, T102N, M104V, D105A
light: B3 light with S30E, Q31N, W94Q

- IL-13 Neutralization Assay IC50: 152 pM
B8: DVD3176 (bispecific antibody, human IgG1, kappa)
heavy: B3 heavy with A30N, T102N, M104V, D105A
light: B6 light with S30E, Q31N, W94Q

- IL-13 Neutralization Assay IC50: 79 pM
B10: DVD3173 (bispecific antibody, human IgG1, kappa)
heavy: B9 heavy with A30N, T102N, M104V, D105A
light: B9 light with S30E, Q31N, W94Q

Substitutions are numbered along the chain they refer to. One block for each binder: values may come before it.
